In all, about 33,000 sequences were measured (“E-score (-0.5 to 0.5)”: median about -0.035, highest 2% from about 0.34 on). The list shows a part of the results.
Target: T1, Mot3 (UniProt P54785)
T1 sequence: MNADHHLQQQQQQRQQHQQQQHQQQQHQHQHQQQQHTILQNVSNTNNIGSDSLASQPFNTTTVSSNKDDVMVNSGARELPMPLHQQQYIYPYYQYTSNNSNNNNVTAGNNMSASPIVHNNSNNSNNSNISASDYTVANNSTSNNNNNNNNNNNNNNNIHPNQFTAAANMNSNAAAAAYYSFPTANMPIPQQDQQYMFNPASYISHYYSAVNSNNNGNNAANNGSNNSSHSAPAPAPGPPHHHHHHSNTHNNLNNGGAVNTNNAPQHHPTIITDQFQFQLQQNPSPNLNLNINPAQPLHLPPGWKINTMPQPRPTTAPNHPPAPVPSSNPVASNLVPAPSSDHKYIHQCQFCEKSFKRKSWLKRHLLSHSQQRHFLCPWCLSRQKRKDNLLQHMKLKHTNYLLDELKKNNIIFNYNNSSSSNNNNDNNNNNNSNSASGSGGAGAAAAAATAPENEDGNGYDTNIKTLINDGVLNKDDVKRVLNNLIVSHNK
Experiment: PBM E-score (8-mer binding enrichment) (E-score (-0.5 to 0.5)); higher = stronger / more preferred TF binding; most listed sequences are background and not binding sites
Conditions: protein concentration: 200 nM; construct: GST-full length
Procedure, shortened: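 The E-score, a modified Wilcoxon-Mann-Whitney statistic, was computed by the Universal PBM Analysis Suite for every ungapped eight-base word pooled with its reverse complement. Scans behind it were normalised with masliner after bound GST-tagged yeast transcription factors were detected with fluorescent anti-GST. The proteins, at about 100-200 nM, had been applied to universal all-10-mer Agilent arrays made double-stranded by primer extension.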

Sequence	PBM E-score
CAGACCTG	-0.25
ACTCAGAA	0.0722
AGGTTAAT	0.0834
AAAGCAGT	-0.00102
GAGACAAC	-0.063
AACGGTCC	-0.201
AAACAAGC	0.0864
ACCTGCCC	-0.0694
AATGCCAA	-0.0336
CGCTCACC	-0.292
AGCACCTG	0.0863
GCTATACC	-0.0382
GACATCGA	-0.0937
ATCGAGGA	-0.102
CGCACCGC	-0.118
ATGTATTA	0.33
AACTCTTA	0.12
GGCCCGAC	-0.19
AAGCTACC	-0.124
TACTCGCA	-0.0684
ACACTCAA	0.186
GTTACGGA	-0.0574
AATAAATT	0.0734
TGCTATAA	-0.0679
AAGGGGAC	-0.173

Sequence	PBM E-score
ACATGCGC	0.251
ATCTACAA	0.205
GTAATCTA	0.265
CACCATGG	-0.0498
ACGCGCTC	0.115
AGCCTAAA	0.178
ATCAGGTA	0.256
CCCTGTCG	0.0848
CACATGCA	0.153
ATAGTGAG	-0.0627
AAGTGGAC	-0.28
ATAGAGAC	-0.144
ATACAGAC	0.0425
CGAGTAGC	-0.131
GTAAGTAA	0.169
GAGATAAC	0.115
GTAGATCA	0.122
ATCAGGAG	0.00236
AGCGCCAC	-0.3
ACTTAACC	0.118
GAGCTCCC	-0.149
TGAAGTAA	-0.00559
AAAAGATC	-0.0143
TACCTGGA	0.178
CGGCGACC	-0.34

Sequence	PBM E-score
AGCTTCAC	-0.0585
CTTATTCC	-0.194
CGTTCGTC	-0.0385
ATAGTGGA	0.171
CATCGTGA	-0.0523
CTTTAGCC	-0.0668
GGCCCCTA	-0.12
CTGTGAAC	0.0791
CCCTTATC	0.00197
TAGGTCGA	-0.073
ATCAATAC	0.224
GAGATGCC	-0.0239
GACAACGA	0.00028
ACTCACTA	0.0736
ATCGGCAG	-0.16
ACAAACGG	0.0362
AGAGCTCC	-0.224
GTAGGCTA	0.226
ATACAACA	0.216
CGTGAAGC	-0.266
TGAGGAAA	0.0921
ACCAACGT	0.122
AAGAGTAG	0.0291
ACATTCGC	0.0874
AAGCGCGT	0.146

Sequence	PBM E-score
AAGTGGGT	-0.0924
AGTTTCAG	-0.0348
ACCGGTCT	-0.283
ATGAAAAA	0.0509
AAGGACGC	-0.0574
CCGGACCC	-0.0667
CAGTTAAG	-0.0297
ACGGCTAC	-0.165
GAAGCCAA	-0.3
CACCGCTG	-0.138
AGAACTAC	0.0299
ATGGATCG	-0.0306
GCTGCTCA	-0.148
CACAAGAG	-0.0143
GAATGCAC	0.0446
ACCCGCTC	-0.29
ATTAATGC	-0.0961
CGCAAAGA	-0.00228
GGCACTCA	0.15
ATAGGGAA	0.00264
CTCACTCA	0.00285
TGCGCGCA	0.229
ATCCTTCC	-0.0671
CGACAAGA	0.052
ATGGCTCG	-0.182

Sequence	PBM E-score
CAGCATGC	-0.0613
CCCGCCTC	-0.121
CCCGGAAG	-0.0782
AATGGCAA	-0.0233
AGACGCTA	-0.174
ACCACCGC	-0.171
CAATTACA	0.378
CATAGAGA	0.0452
CCGGACAG	-0.0786
CCTAGCAC	0.0273
AATGACAC	0.25
ATATTAGC	-0.0465
ATAGCGGC	-0.187
AGGTCACG	-0.0889
GGTAGGAC	-0.172
CCATCTAC	-0.151
CCAGATGG	-0.23
TAAGATTA	0.113
CTCGACGC	0.0942
CGGAAATC	-0.109
CTGTACAC	0.265
ACGTTCAC	0.0135
ACTATAGC	-0.1
ATTACCCC	-0.0122
CCGCGACA	-0.104

Sequence	PBM E-score
GCAATCAA	0.0823
CTAAATAA	0.195
GGTGAGGA	-0.148
TACAATGA	0.136
AAGCACGT	0.109
CGGTCATA	-0.283
ATTTGGAC	0.0265
GCTACTAC	0.0121
TAGCAAGA	0.152
CAGAAGAA	-0.189
AACTCGTG	0.143
AAACTGTT	0.0843
AACATTCT	0.214
CTGGACAC	-0.046
GTCCTGAA	-0.211
AATCCAGA	-0.119
ATGCGGCG	-0.109
CTATTCCA	0.0473
AGCAACTG	-0.164
TCGGACGA	0.0576
ACTAAAAT	-0.0105
GCGGGGTA	-0.194
AGGATCAT	0.0704
AATCGCCC	-0.408
AGCCCGGG	-0.0855

Sequence	PBM E-score
CTTGACGA	-0.0394
GATACCAA	-0.0601
ACGTGGTA	0.106
CAAAAAAG	0.151
AAAGTATG	0.136
CATCGCGC	-0.206
CTCGCAAC	-0.0416
GCCTACGC	0.293
AATAATAG	0.0211
CAGTATAA	0.00928
AAACAGTC	-0.076
GCCTAGAC	0.0287
GATACTCC	-0.218
AGCGAATC	-0.118
ACATTGCC	0.236
CGGGAGAG	-0.288
CGAGTCGA	-0.108
TCGTTTCA	-0.124
CTTGCTAC	0.155
ACTGGATA	-0.0369
ATGTAGGG	0.00541
AACCCCGT	-0.258
ACACTTAA	0.193
TCTGCTAA	0.0266
CCCACGCA	-0.0521

Sequence	PBM E-score
ATTAATCC	-0.14
AGTTAATG	0.0724
ACGTGGTC	0.0227
ACTGATAA	-0.0129
CTGGGCAC	0.0731
CATACTAA	0.0644
CTATTCTC	-0.0386
ACTCCTCT	-0.182
TAGAGATA	0.036
CCGACGTC	-0.235
GACAGCAC	-0.0325
GACAGAAA	0.0469
AGCGGGTC	-0.196
CCATGGAG	-0.244
CAAAGAAG	0.135
AAGAGAAC	0.0546
ATATGGGA	-0.14
CCTAGCCA	-0.0256
AACTCGCA	0.00841
GCACATTA	0.214
AGGAGGGG	-0.156
AAATTGAA	0.112
CTCACGAA	0.048
ATCTGTCC	-0.268
CGGCTTAC	0.0799

Sequence	PBM E-score
AAGGAAAT	0.426
CGAGAGTC	-0.378
AGTTGTAC	-0.0112
AAGAACAG	0.218
CGCAGCAG	0.0067
GTGCCGAA	-0.0995
AGGCAGGA	0.152
AGTGTGTC	0.0504
GGGCTATA	-0.197
CGCAAGGA	-0.0211
ACACCCGT	0.053
GTCCGAAA	-0.142
AAGGTGGT	-0.0322
ACGACAAT	0.184
ACCACTAA	0.162
CCAGTCAG	-0.242
GCATGATA	0.0933
ATTAGAGA	-0.174
CGAACAAG	0.0494

Reference: the supplement of paper PMC3334620
